Self-cleavage data for 83 variants are collected here from the RNAGym collection of RNA variant scans (doi:10.1093/nar/gkz1192).

First the molecules themselves.
B1: CPEB3 Ribozyme (parent)
chain: UAACAGGGGGCCACAGCAGAAGCGUUCACGUCGCAGCCCCUGUCAGAUUCUGGUGAAUCUGCGAAUUCUGCUGUAUAUCUC

The source gives no read counts; variants with many changes may rest on few reads.

The variants in the data set derive from B1. Kind of data set: self-cleavage, relative activity (ratio to wild type); higher = more cleavage; in vitro, sequencing. In short, it runs like this:
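After error-prone PCR and barcoding, CPEB3 ribozyme mutant libraries were transcribed with T7 RNA polymerase at 37°C for 5 hours, then given 15 min with DNase I before an EDTA stop, and they cleaved during both steps. Reverse transcription with template switching preceded Illumina sequencing. Relative activity divides a variant's cleaved/total read fraction by the unmutated ribozyme's. At least 5 reads were required per variant, and three batches were averaged.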
For the variant G10A A35U A77G, the self-cleavage worked out at 0.24. In the case of G10A C27U U69C, the self-cleavage worked out at 0.15. With G10A U41C U54C U58C A65U U66C U74C the figure was 0.05; with G10A U25C U54A A57U U58C G61A A64G, 0.03; with G10A C12G A18C U25C U43C C68G, 0.08. Turning to G10A U43C A57G, the self-cleavage was found to be 0.36. As to G10A C11U C23U U43A A64G U78C, the self-cleavage was found to be 0.13. With G10A A18U G36U C40G U72A the figure was 0.09. With G10A U31C U43G A64G the figure was 0.04; with G10A A18G C44U, 0.2. As for G10A G46U A64G U69C A75U U80C, the figure is 0.11; as for G10A C14U U58C U69A, 0.04; as for G10A A21U U49G, 0.06. Consider G9U A64G A65U A75U, for which the self-cleavage was 0.05. Take G10A A15G A20G U67C U74C: the self-cleavage turned out to be 0.04. As for G10A U49C U69C, the figure is 0.34. Take G10A A15G U26A U54A U58C U60C: the self-cleavage came to 0.07. With G10A C12U A20G G42A U43A the figure was 0.05; with G10A C29U A35C U41C U51C, 0.22; with G9U C17U U31C U48C U51A, 0.03. With G10A U51C G61A the figure was 0.13; with G10A G24C U25A U54C, 0.04; with G10A A56G A57G, 0.13. As for G9U G53A U54C U58C U60C A64G U69A, the figure is 0.08; as for G10C A15U C27U U43A U51A, 0.13. With G10A A45U A64U U69A U72C, the self-cleavage was determined as 0.08. In the case of G9U C39U A56G U69G, the self-cleavage was found to be 0.06.

G10A U41A U78C: the self-cleavage turned out to be 0.07. In the case of G10A A15G A18U U26C U49G, the self-cleavage stood at 0.05. As for G10A U25C A35C, the self-cleavage stood at 0.05. With G10A C11A C34A C38U U48G U66C the figure was 0.02; with G10C A15G U26C G30A A57G, 0.07. As for G9U U48C A64G, the figure is 0.06; as for G10C A20U G24C, 0.06; as for G10C A18U A20G A45G U54C, 0.37.

On to G10C C14G A20G U51A G52U G70A, for which the self-cleavage came to 0.05. For G9U G52A U54C, the self-cleavage came to 0.06. With G10A A15G A21G, the self-cleavage came to 0.08.

In the case of G10A U31A U69C, the self-cleavage is 0.32. In the case of G10A A21U U31C G52A A64G, the self-cleavage is 0.04. With G10A A18U C37A U48C the figure was 0.26. With G9U C12A U58C the figure was 0.06; with G10A A35U U66C U67C, 0.07; with G10A A15G C44G U66A U80A, 0.01. With G9U U25C U31C the figure was 0.39. Take G10A C34U U69A: the self-cleavage is 0.05.

G10A U26C G36A U60C U74C: the self-cleavage worked out at 0.06. As for G10A A28G C40A A56G U78C, the figure is 0.14; as for G10A A13G A45G U67C U69A, 0.22. On to G9U C12U A15G A35G, for which the self-cleavage came out at 0.28. With G10A C17G A18G A57C U72C the figure was 0.04. For the variant G10A U25A A64U U69A, the self-cleavage was 0.04. As for G10A U31C U60C U78G U80A, the figure is 0.03. Turning to G10A U31C U48C A57G, the self-cleavage turned out to be 0.06. With G10A U31A A45G the figure was 0.07; with G10A A13G A21G C27A U48A A75G, 0.02; with G9U U31C A45G U51C A65G U69C U74C, 0.03.

Take G10A A20G A35G C62A U78C: the self-cleavage turned out to be 0.05. With G9U C34U A45U the figure was 0.11; with G10A C14U U31C U49C U54G U69C U80C, 0.18; with G10A A15G A28G A45G G46A, 0.2. With G10A C12G G24A G53A, the self-cleavage was found to be 0.26. In the case of G10A A64U U76A, the self-cleavage worked out at 0.08. G10A A21U U43C: the self-cleavage worked out at 0.31.

Consider G10A A21U C44U A75G, for which the self-cleavage came to 0.04. As to G10A U26A U72C, the self-cleavage was determined as 0.15. For G10A A13U A45U C79U, the self-cleavage stood at 0.3.

Take G10C C12U U67C: the self-cleavage was found to be 0.22. Turning to G10A G24A G63A U67C, the self-cleavage worked out at 0.05.

Regarding G10A A18G U54C U78A U80A, the self-cleavage turned out to be 0.32. In the case of G10A A15U C29U A45G A65U U67C, the self-cleavage was 0.04. On to G10A C29U U78A, for which the self-cleavage was 0.09. As for G9U U43A U54C U72G, the figure is 0.06; as for G10A A20U C34G C68A, 0.07; as for G9U G53C U66A U80G, 0.12.

As to G10A A18G U43C U54G U69A, the self-cleavage was found to be 0.06.

As to G10A U26C C39U U54C A64G, the self-cleavage turned out to be 0.21. For G10A C11A U74A U80C, the self-cleavage worked out at 0.1. As for G10A G36C U43C U66C U69A, the figure is 0.05; as for G9U G10A C12A A20U A56G, 0.04.

Consider G10A C11G U25A U43G U60C, for which the self-cleavage came out at 0.13. As for G10A U31C U72C, the figure is 0.13; as for G10A U67C U80C, 0.03.
